# Some of the results follow. These are noisy estimates, calculated here from bound and input reads.
# Molecular target: T1, Pho4 (S. cerevisiae) (UniProt P07270)
# T1 sequence: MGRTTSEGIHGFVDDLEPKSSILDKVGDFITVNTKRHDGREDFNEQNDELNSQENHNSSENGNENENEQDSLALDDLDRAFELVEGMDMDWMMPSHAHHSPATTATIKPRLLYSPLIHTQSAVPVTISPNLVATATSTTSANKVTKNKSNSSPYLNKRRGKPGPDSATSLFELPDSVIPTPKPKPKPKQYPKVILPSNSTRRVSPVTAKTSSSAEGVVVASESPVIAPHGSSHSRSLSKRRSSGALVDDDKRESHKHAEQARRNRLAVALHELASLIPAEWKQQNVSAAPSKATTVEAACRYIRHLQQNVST
# Experiment: relative binding free energy (BET-seq); higher = weaker binding
# Settings: reference: library average
row,Sequence,relative binding free energy
1,CTTTTCACGTGGTTCA,0.27 kcal/mol
2,TGCGGCACGTGGTCTT,-0.26 kcal/mol
3,TTGTTCACGTGAGTCT,0.46 kcal/mol
4,TGTATCACGTGTCTTG,0.13 kcal/mol
5,AGAGGCACGTGGACTG,-0.13 kcal/mol
6,ACGGTCACGTGGGGTT,-0.02 kcal/mol
7,TGTTTCACGTGTTTAT,0.28 kcal/mol
8,TAGAGCACGTGGTAGT,-0.23 kcal/mol
9,GGAAGCACGTGGTGGT,-0.14 kcal/mol
10,GCTGACACGTGGTTGT,0.14 kcal/mol
11,GCGTTCACGTGTATGG,0.4 kcal/mol
12,CGGTACACGTGGTTTT,0.07 kcal/mol
13,CGGTTCACGTGATGAT,0.51 kcal/mol
14,GCTTGCACGTGCGGTA,-0.05 kcal/mol
15,GTGTTCACGTGTATGC,0.36 kcal/mol
16,GGCGCCACGTGGGTTA,-0.17 kcal/mol
17,AGCGGCACGTGTGCGT,-0.09 kcal/mol
18,TTAGGCACGTGGCGAT,-0.11 kcal/mol
19,GATGGCACGTGGAAGA,0.09 kcal/mol
20,GGTCTCACGTGTGGAG,0.36 kcal/mol
21,AGTTGCACGTGATTTA,0.07 kcal/mol
22,TTTGTCACGTGAGCCG,0.24 kcal/mol
23,TAGAGCACGTGTATAT,0.09 kcal/mol

row,Sequence,relative binding free energy
1,AGGTCCACGTGTGCGT,0.05 kcal/mol
2,GGTATCACGTGCGTTG,0.14 kcal/mol
3,GAGAGCACGTGTAATT,0.21 kcal/mol
4,CGTGACACGTGGGCAG,-0.02 kcal/mol
5,GGGACCACGTGGGGGT,-0.14 kcal/mol
6,TTGTTCACGTGTGTTT,0.34 kcal/mol
7,TGGGCCACGTGATTTG,0.23 kcal/mol
8,ATGTTCACGTGCGGTC,0.16 kcal/mol
9,CGTTGCACGTGGGTGC,-0.27 kcal/mol
10,TGAAGCACGTGGCTGG,-0.1 kcal/mol
11,AGGCGCACGTGCGTTT,-0.07 kcal/mol
12,TGTGTCACGTGTGGGG,0.2 kcal/mol
13,AGGGCCACGTGAGTAG,0.04 kcal/mol
14,TTGTGCACGTGTATTT,0.1 kcal/mol
15,AGATCCACGTGGGGGA,-0.07 kcal/mol
16,GCTGACACGTGGGTGT,-0.15 kcal/mol
17,GTAGGCACGTGCGTCG,-0.09 kcal/mol
18,GTCGTCACGTGAATTG,0.23 kcal/mol
19,GAAATCACGTGTTTTT,0.26 kcal/mol
20,ATACGCACGTGGCTTT,-0.1 kcal/mol
21,AAGGTCACGTGGGGCA,-0.06 kcal/mol
22,AACGGCACGTGCGTGG,-0.25 kcal/mol
23,TGCTTCACGTGTGGCA,0.32 kcal/mol

row,Sequence,relative binding free energy
1,ATATTCACGTGTTCTG,0 kcal/mol
2,CATGTCACGTGATGTG,0.23 kcal/mol
3,AGTAGCACGTGAGGGA,0.28 kcal/mol
4,GGTATCACGTGAAGGC,0.29 kcal/mol
5,GTTCTCACGTGGGAGT,0.17 kcal/mol
6,GGTGGCACGTGGGGGT,-0.11 kcal/mol
7,CGCTGCACGTGTGGAG,0.18 kcal/mol
8,TGCAACACGTGGGGAG,-0.12 kcal/mol
9,TAGGCCACGTGTGTAG,-0.07 kcal/mol
10,GTGGGCACGTGCATGA,-0.09 kcal/mol
11,GGTAGCACGTGTTGGC,-0.08 kcal/mol
12,GGTTTCACGTGGAGGC,0.27 kcal/mol
13,TGGTTCACGTGCTGCG,0.17 kcal/mol
14,CTTTACACGTGGGTTG,-0.01 kcal/mol
15,CTTTACACGTGTGTTG,0.1 kcal/mol
16,ATTCGCACGTGAGGCG,0.12 kcal/mol
17,TTGGGCACGTGTAGCA,-0.19 kcal/mol
18,TAAGGCACGTGCAGTA,-0.17 kcal/mol
19,GTGAGCACGTGGTATT,-0.06 kcal/mol
20,AATGACACGTGAGGGT,0.2 kcal/mol
21,TCCGTCACGTGTAGGG,0.01 kcal/mol
22,GGGTCCACGTGCGGGC,-0.03 kcal/mol
23,TAGCGCACGTGCTGGG,-0.1 kcal/mol

row,Sequence,relative binding free energy
1,GTTGACACGTGTTGGC,-0.1 kcal/mol
2,GTTAGCACGTGGGCGT,-0.14 kcal/mol
3,GTTTGCACGTGATGTT,0.25 kcal/mol
4,GGTTACACGTGTCTTG,0.15 kcal/mol
5,TATCGCACGTGGAGTG,-0.15 kcal/mol
6,TGGGCCACGTGGGATG,-0.17 kcal/mol
7,TCGTTCACGTGTGTCA,0.16 kcal/mol
8,GTATGCACGTGCAATG,0.12 kcal/mol
9,GTGTGCACGTGGGCCA,-0.09 kcal/mol
10,GTCTACACGTGTTGTT,0.09 kcal/mol
11,AGGTTCACGTGTTGAG,0.16 kcal/mol
12,GTAAACACGTGGGTGC,-0.07 kcal/mol
13,TTAGACACGTGTTAGT,-0.05 kcal/mol
14,TTTTGCACGTGTAGGC,0.09 kcal/mol
15,TGGTACACGTGGGGTC,-0.14 kcal/mol
16,CGTTGCACGTGCCGGT,-0.07 kcal/mol
17,GGGGGCACGTGGTTTT,0.04 kcal/mol
18,GAGAGCACGTGTGTTA,-0.01 kcal/mol
19,GAGTTCACGTGCGTTA,0.16 kcal/mol
20,AATTTCACGTGGCATG,0.14 kcal/mol
21,CGAAACACGTGGGGAG,-0.09 kcal/mol
22,ATAGGCACGTGTCAGA,-0.06 kcal/mol
23,CATTACACGTGGGGAG,-0.14 kcal/mol

row,Sequence,relative binding free energy
1,ATGCTCACGTGGGAGT,0.25 kcal/mol
2,AGTAACACGTGTGTGT,0 kcal/mol
3,CGGTTCACGTGTAAAG,0.27 kcal/mol
4,TGAGACACGTGGGCAG,-0.09 kcal/mol
5,TGTGACACGTGGGGTT,-0.11 kcal/mol
6,TTATTCACGTGTCATG,0.27 kcal/mol
7,TGTTCCACGTGTTGCG,0.23 kcal/mol
8,GTATACACGTGTATAT,0 kcal/mol
9,TTGACCACGTGAGAGG,0.2 kcal/mol
10,TTATACACGTGCGAGT,0.03 kcal/mol
11,CCGTGCACGTGTTGGG,-0.22 kcal/mol
12,CAAGGCACGTGAAGGG,0.09 kcal/mol
13,GTGTGCACGTGCTTAT,-0.05 kcal/mol
14,GAATTCACGTGTGAGG,0.35 kcal/mol
15,GAATTCACGTGGTTTG,0.3 kcal/mol
16,GGACGCACGTGTGTAG,-0.07 kcal/mol
17,AAATGCACGTGTGGAT,0.08 kcal/mol
18,TTTTTCACGTGGTGTT,0.16 kcal/mol
19,ATGCGCACGTGAGTAG,0.11 kcal/mol
20,ATGTTCACGTGCGTTT,0.3 kcal/mol
21,TTGACCACGTGGGTGG,-0.23 kcal/mol
22,GGGCACACGTGAGGGT,0.21 kcal/mol
23,GGATGCACGTGGATAA,0.03 kcal/mol
